Measured values: the supplement of paper PMC10681739
± gives the standard deviation of the averaged measurements. Over roughly 4,100 sequences, “arbitrary fluorescence units” has its median near 780; the highest 2% begin near 22,000. Some of the results follow.

Molecular target: T1, ETS1 (UniProt P14921)
T1 sequence: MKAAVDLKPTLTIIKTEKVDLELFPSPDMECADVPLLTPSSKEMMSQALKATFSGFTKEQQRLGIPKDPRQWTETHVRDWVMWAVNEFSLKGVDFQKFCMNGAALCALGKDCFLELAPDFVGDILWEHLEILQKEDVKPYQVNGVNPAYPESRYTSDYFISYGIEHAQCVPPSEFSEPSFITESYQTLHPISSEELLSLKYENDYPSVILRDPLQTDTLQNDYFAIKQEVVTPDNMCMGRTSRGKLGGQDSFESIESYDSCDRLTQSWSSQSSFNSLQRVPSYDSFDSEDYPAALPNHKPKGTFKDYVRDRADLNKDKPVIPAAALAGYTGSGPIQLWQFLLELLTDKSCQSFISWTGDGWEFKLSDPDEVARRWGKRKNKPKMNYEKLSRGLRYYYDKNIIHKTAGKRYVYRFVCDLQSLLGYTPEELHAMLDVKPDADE
Experiment: ETS1 binding intensity (PBM fluorescence), ETS1 alone (arbitrary fluorescence units); higher = stronger binding
Details: ETS1 concentration 1 nM; RUNX1 concentration 0 nM
Summary of the method: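 Double-stranded Agilent 4 × 180k arrays held 36-bp genomic probes whose RUNX1 partner site was mutated, and these were incubated with 1 nM full-length recombinant human ETS1 in the absence of RUNX1 under standard PBM protocols. Bound protein was labelled with anti-ETS1 antibody (Cell Signaling Technology 14069) plus an Alexa488-conjugated secondary and read on a GenePix 4400A, with four spots printed per sequence. Binding level is reported as raw spot fluorescence intensity summarised over replicate spots.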

Sequence	ETS1 binding intensity
CTTTTTGGTCTGCCAGGCACGGATTTCCGCCCACTC	1270
CAAGCTCTTCGGCCTTCGTTCCTCTCTTCCGTTTGC	521
GCGATTTGGGGTTCCTCCTTAGGAAGCCAGATATGG	371
CCGAATCTTCGGTGGAACCCGGATGTGGCCGAGGCC	2240
CCCCTCCCCTCAGCAGCAGGTGTTTCCGTTCGGGTG	833
CCCAGAGGAAGCCCCATGCCAAGCCCGCCAACGCCA	435
CTTTGGCGGCTACATGTCCCCCTTTCCGGGAATCTG	609
CTGACTTGTTGTAGTCTCTGCCACTTCCTGAGGTGT	668
CGTTCGGGGTTCCTCTCGGCCCCGGATGTGACTGTT	998
AGCTCAATTTCCTGGCGTGTAACATGGCCCCAAGGG	4800
TCCAACGTCAACATGCAAAACTCAGAGGAAACGCAG	437
CTCTCTTTCCTGTTGAGTAATCGAGGTCTCTGCTCC	2800
AGCGGTGTTTCAGGATGTGAGGGCCCTCAGGAGCCG	621
CAGAAGGTGCTTACGTACTAATTTCCTCTAGGGCTT	593
GCTTCTGAGGAAGTGCGTTCTGAGGGTAGGTGGAGT	832
GGGGTCCACGGTGGCTGCCGCATCCGGTTTAGGGGC	9320
GAGAGCCTACGGCTGGCGTTTGAGGCGGATGGCAGT	295
GAGCAGGGCTGAGGGGTCTTTACCGTCCGGCTCCGC	321
AGGCCACCCCCTTCCTCCGCCCGCTGGTCGCAGCCT	462
AATGCTGAGAACCCCAGGCTCACAGGATGCCCATCT	383
AGCTACCCCAGCCCAGGCCAGAGCAGGAAGGGTAGA	330
TGGTCCTTTGTGAGCGTGCTGTCAGGAAGATGACAG	338
ATTTCAGTTGAAAGCACTGTTCTTCCTGTTTCTCTG	1150
CTACATTTCCCACAGGCGCCCGGGCGCTTTTCGAAC	471
TCGCCTCAGCCCTCATATTCAACCCGGAAGCCTGGG	386

Sequence	ETS1 binding intensity
GGGGAACGGAAGCTGCTGTCGTTACTGGCAGTTGTC	2950
CCGAGAAGTGGAATCGCCAGGCGGAAGGGGCGGAGT	515
CTTCTGGCGGAAGCGGCACAAGGCGCAGTACAGCGC	2170
GCCTTACGGCGAGGCGGGCCGGAGCGACGGAAAGCT	298
GGTCTAAGAGGAAGGATGGGGACCAGCCCTCAGGCG	426
GAGGTGCTGCAGGCCAGCCAGCTGTCATCCTGTCTG	362
ACACAGGAAGGACGCACGCTCCCGCCCCAACCCCAT	1500
GCTGAGTGCAGGTGGCCTGGGCGGAAGGCTCAGCGG	336
CCTACCTCGGAGAGAAGGCTCTTTATTTCCTAGCCG	317
CATGTTGTCAACTCGATTTGTCACAGGAAGTACCCA	958
GAGGTGCCGGAAGCCAGTAGGTGCTTTTGGGTGCTA	1880
GGGCGGGGCATTTTGGGTAAGAGGAAACGCTGGGGC	687
TCCGCGCGGACGGCCGCGTTGTAGGGGACGGACGTG	325
TTGAAAAGCACGACTCCTGACACAGTAGTTCCGCCT	361
TGAACTCCGCCCAGCGCGATCCGGAAGCCTAGCGCC	443
ATGGAAAGGAAGTCGGTGGGAATCCGCCTCAGCGGT	1590
TCGCTGGGACAGCGGCTGGGCGTCCGGGGGCGGGGC	388
TCAGAACCAGGAAACTGAAGGCGATTACTCCACATA	782
CTGCTTGAGGGTGGAGGGGAGCTTCCGAAGGAGGCC	536
GTGTTTCCTCTTTGTTTTGGGGCTGGGGTTGTCACA	4800
GGGCTTCGGCGCTGGAACTGGACCAATCCGGAATCG	275
TCAAAGCGGCGGGGTTTCATTTCCTGTTCCTGAACA	12300
TGGCGGGAGAACTTCCCCCTGTGCGCTCGCGACGTG	775
ACAGGAAATGACATCAGAATCTCCAAACTACAACCA	2200
TGGCAGGATGCCGTTAAATATGTAATCACATGTCTC	703

Sequence	ETS1 binding intensity
GGGCTAGCGGATCTGGCCGCCGCTTCCCGTCCAGGG	699
GGGTGGCGATCACGTGCCCAGAACGTCCGGCGTTCG	549
GGCTCGGCAAACATCCGGCTCCGCTCTGGAACGGGA	17500
GCTTTTTCTTGGTAGTTGGGCAGGAAGCCTCTAGAG	589
CAGGTTGTTGAGGATGTGGAGAAACAGCAACCTCGT	574
AGGCCGCTTCCTCCCACATGAAATCGCAGGCTTCGG	3450
GGGGGAAGCTTCCTGAGGTGAAATAGAGCGCTGTGC	2740
GTTGGTTTCCTCTAGACTCTCGTGGACACACCGTTC	2210
AGGCGCGCTCTTACGGCGTCACGGAAGGCGCGCTCT	336
AGGAGGTGCTCAGGCGGAGGCCAGGATGTGTGCAAA	413
CCAGCCGGAAGCCCCGCCCCCTAGAGGCACCGTGGA	3670
GAGGTTGGGAAGTTCTTCCTTTGGTCTGACAACAGT	800
ACCCCTTCAGGAAGCACTCACCTACAGCCAGGCTCC	489
ATCTTCAGGAAGCGGTATCAACCTGAAAAGCACCAC	1060
CTAGCCCAGAAAGCTGCAGCAGCTTCCTCAGGGACG	394
GCAGCGCCGGTTCAGCTCCAACCTTCCTGGAGACCC	381
CCTGACTCTGGGTTTCCTCCCAGCCACGGACACCTG	625
CGGGGCCTGTGATTACTACACTCCACTTCCTTATGA	473
CGTGAGCCACGGCGCCCGGCCTCGCCCTTCCTGAAG	353
GCGGCACACCGTGACTGCTAATTAGCCCGGAAGCTG	423
AAAAAGCCGGATGTGAAGGCTGGGGTTCTCAACCCG	11600
CGAGAAGGAGGTGGGCAAGGAACGGAAGCCGGGAGG	553
TGCTGCCCAGCACCGTAAGGACACGGATGCCCCGCC	319
TCTGGGCTGTCGTTACAAGCAGGAAGTGGCCATGGC	4610
CAAGTGTACATGTAGTTATAACTTCCTGTGCTGCCT	3350

Sequence	ETS1 binding intensity
AGCGCCTTACCCTCGGCACACCCATTTCCTGACCCC	624
CGCCGAACTTCCGGCAGTAAATTCCGTGGATTCCCG	27100
GGCAGACAGTAAATCGCGGCGTTTCCTGGAGGGCGC	984
CGCCTACCCCTTCCTGAGGCGGGGGCGGATTCTCGA	1170
CATCATGAGAACCTCACTCACCGAATCCGGCACCCA	409
GGCGCGCTCGGGGTTAACCCGGAGCGGAAGGATCCC	382
TGGAATTGAAAGGAAGCTGGCGCCACCGAAGAGGAC	587
GGGTCTCCAGGAAGCCACTCACCCCAAACTTTGACA	508
CTCTGCTTCCTGTCTTTGAATGCCTCTGTGATTTTC	13400
TCATTTCCTCTGGTGTTATTGTGTTGGGGTTTTAAG	8650
AGCAGCATAGTCCACAAGTTTCCTGTGTTTGCATCT	1480
CGCCGGACGTAGTGACGTAGCGCGCAGCTGCAGCGG	1130
CCTCACCCAGGAAGTGGCTGCTGCTGTCTCAGGGTT	2170
CTCTGTGCCCTGCCCCAACAGACAGGATGTGACTTC	988
GTCTTCCTTCCTGAGAATCTTATCCACCAGCTTGCC	2620
CCTCATCCTGAGTCTGAGAGCTGCAGCTCGCACAGA	1950
CTCCACCTCAGGGCTGGGCTGCCACATCCCATTCAT	434
CCCTTTTCCTTCCGGCCTGTGCAGCTTATAAGATCT	8530
TGAGAGGCAGTGGATTCTCTGGCCAGGAAATTGAGG	376
GGTCGCTCTGGTGACGGGGGAGGAAATTCTGTCCGT	512
ACATTTCCTTTTGGTATTTAAAGTAATCACACAGAA	9870
ATGCCTGGGGTCCCAGCTACACAGGAAGCTGAGGTG	707
CTGGAATCCACCTCTCGCTCCATTTCCCAGCACCCC	379
GACAGGATACAAGAATTCCGCGGACTGCCGTAGTCG	806
GGAGGAAGAGAGGAAACGGGGGCGGGCGCCGCTTCT	1710

Sequence	ETS1 binding intensity
GTGAGCTACAAGGGCCCCTGGGTCCTTCCTCCAAAC	316 ± 33
AACATCCGGTTCCCGGTTCTGCCCCCTACCCCAGCT	49100
TTTCTCTTCCTGTTTCCACCCTGAGCACAGCCAGCT	9020
CTGCAAACCCCAAAACACCTGACTGCTACGGAAGAT	424
CTTTCTTGTAGGCGATGATACTTCCTACATTCCCCC	516
TTTCGAGAAAACCGGAAGTGCGTGGACACGCCCCGC	31500
CTGCCAGAGCACACAGTTTGCACTTCCGGGGCGGGC	2710
CTCTCAGACTCAGGATGAGGTGGCCGTAGGTGGGGT	416
CACTGTGCTCTAACGACACTGACATCCGCCTGCCTC	1900
ACGAGGTTTCCTGCAGGCTCCAGCCGAGACAACATC	2630
AGCTGCGAGAACCCCAGTGAGAGTGTGATTTCCTCT	307
CTAACCCTGCTTCCTCTTAGTGCTTTCCCCCAACCT	2190
TTTTGCGATTTTTGATCTGGAAGCCACACATCCTTA	424
CTAACTCACACCAGCGCGTTGCCTCGGAAACATCGC	401
CTGAGGGTGCTTTGGGTGCAGCTTCCTGAAAGGAGA	575
CTGCGATTTCCTGGCCTACCGTCTGGTGTTGTACCT	4870
ACCAGCTGGGGCTGGGTGCAGCGGAAGGTGTCTACG	350
TGCCAGATCCGGCTGCGCCGGGGCCGAAAGCACGCC	2190
GAAAACACAGGAAGCCGTCCGCGCAAGCGCGTTGCA	3180
TTTACAGGAAATATCCAGAACAGGTAAACCTACAGA	2490
ACCTTGCAAGACCAAAACACATCCTGGGGCCCCACT	830
GAGCGCAGGACGGAAGCTCGGTGCGCGTACGGCCTC	1000
ACCCCAAAGATTCCTGTTGGTGCTCTGGGTCACAGG	326
GGCGGCACTAGGCTTCCGCCTCACCGAAGTGGGGTT	2020
ACCAGCCCAGGAAGCATCTGCAGTTCAAGTGGCCAC	494
